# ± gives the standard deviation of the averaged measurements. Over roughly 4,100 sequences, “arbitrary fluorescence units” has its median near 780; the highest 2% begin near 22,000. This is one part of the list.
# Target: T1, ETS1 (UniProt P14921)
# T1 sequence: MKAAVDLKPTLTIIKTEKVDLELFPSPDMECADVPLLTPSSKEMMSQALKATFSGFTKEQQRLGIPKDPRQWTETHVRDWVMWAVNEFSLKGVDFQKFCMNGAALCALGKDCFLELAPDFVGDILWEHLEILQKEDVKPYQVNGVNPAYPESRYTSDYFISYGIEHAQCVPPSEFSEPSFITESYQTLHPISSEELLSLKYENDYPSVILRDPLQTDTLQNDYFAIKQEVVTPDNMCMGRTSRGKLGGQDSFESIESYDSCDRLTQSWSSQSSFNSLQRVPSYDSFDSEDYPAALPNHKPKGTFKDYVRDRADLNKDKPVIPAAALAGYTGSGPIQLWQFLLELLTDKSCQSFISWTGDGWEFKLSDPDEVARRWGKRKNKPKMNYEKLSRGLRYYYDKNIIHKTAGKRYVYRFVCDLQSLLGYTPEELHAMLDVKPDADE
# Assay: ETS1 binding intensity (PBM fluorescence), ETS1 alone (arbitrary fluorescence units); higher = stronger binding
# Conditions: ETS1 concentration 1 nM; RUNX1 concentration 0 nM
# Summary of the method: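 Full-length recombinant human ETS1 (1 nM, no RUNX1) was incubated, per standard PBM protocols, on double-stranded Agilent 4 × 180k arrays of 36-bp genomic probes whose RUNX1 partner site was mutated. Bound ETS1 was detected with anti-ETS1 antibody (Cell Signaling Technology 14069) and Alexa488-conjugated secondary antibody, then scanned on a GenePix 4400A. Binding level is spot fluorescence intensity, summarised over replicate spots (four printed per sequence) and not normalised.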
row,Sequence,ETS1 binding intensity
1,CTTACGGCCTCGCGGCATGGGCAGTATCCGCCGCCA,403
2,GAGGAAAAAGGAAACAGAAACTCCGAAACTTGCGCC,487
3,GACAACCTACCCCAGCCTTCCTTCCGGGCGCTCAGG,1160
4,CCTCTGCCCAACCCCAATTTTCCCTTCCTCCGCCTT,543
5,CGGGAATTGGGGTCTCCGCCGGACGCGAGTTGTGAG,382
6,TCCTGGGGCTGAGTGGCAGCTTCCATCCGGTGGGTT,1120
7,GCCGTTTCCCGGTTCGCTCGGCCGAGGTCGCTATGG,4670
8,GGAGCGCGCCGGAAACGCGCGGATTCGGCCCGGGAG,6990
9,TAGATGCAGAGAACAACAAACATTTCCGTACGGCTA,563
10,GGCGGGGCGCGGGCGCAGCTCCGTTTCCGGTGGCTC,7200
11,GAGTGCCGTTTCCCCCGCTCACCTCGGGCTAGGGAG,845
12,GGAACAGGAAAAGCCTCCGGCAGCCCCTGCAGGCGG,1810
13,TCTTTTTATTTCCTGTGCAGTCTCGCCTACAGCACT,14100
14,CACTCCGCCCCCGCTGTCCCCGCGGCTTCCGCCACG,617
15,AGAGCGCGCCTTCCGTGACGCCGTAAGAGCGCGCCT,464
16,ATGGCGGAGCGGAAGTCCCAGCTACAACGCGAAAAG,8820
17,AAGTCTGCATTTGGGAGAGGAACATCCTGTTTGCCT,3280
18,CCTCTGGTGAGGCCAGCAGAGGCTCAGGAAGGGAGC,340
19,AACTCGTGGGGTTTTCTTCTGATCTTCCTCCCCGCT,374
20,GTCACAGAGGGAGGAAGGCCGAACCTCGGGAGCCTA,465
21,TCGGGCTGGGGTCCTACGGCACTTCCCGTGGGAGGA,618
22,GTTGCCCCACTTCCTGCCAGTGCTTTTTGGTTGGCC,16300
23,CTGGCCTCAGGAAGGAGGCAGTTTTGGGGCCCCAGG,351
24,CACGGGGCGTTCAACCCCAGGAGGAAATATCGCTTC,366
25,TTACAGGGGCCGGAAGTGGCCTGCAGGCGGAGAAGT,19600

row,Sequence,ETS1 binding intensity
1,CAAGAGCCGGAAGTCCCTTGTGCCGTAGTCCTTCCC,9220
2,GTGCCGAATCCACCTCTTTCTTTCCTGCCTTCCTCC,516
3,GCTTTTCTGTGATTTTTCTCACACGGGAAGTGAGAG,522
4,AAGCAGCCGCCGAGGGGAGACGCCGGAAGTCCCGCC,2530
5,GGGGGCGGAAGTTTCGGTGCATTGTAGGTTCTCCTG,2590
6,CATAGACCGGATGCCTCGTCAACGACAGAAACCAAT,8650
7,TGACTAGAGAGCACACACATATCCTGCATTCTCAGA,846
8,ACTTACTTCCCGACGTCACAGCCTCCGACACCTCAG,1520
9,CCGCGAACCCCAATGTATTTCCATCACAGGAAGAGA,512
10,CGGAGGCCGCTTGGGGGCTCCCGGAAGCGGCGCCCT,718
11,CCGGAGGTTTCGGGAGCTGAGGGAGGAAACAGGGAC,438
12,ACCAGCAACGGAAATCAGATCTCTTGTAGTTATTAT,2290
13,AAGAGCTCAGCACATACCCACTTCCTCCCACAGTGC,1930
14,GGCCGGACGCCATCTTGCTGGTTTACGGCCGGTCTT,1010
15,AGTAACCAGCAGGCTGTGCCGGCAGGATGTTGTCTT,469
16,CACCTCCCACTCAGCACAGAGTTTCCTGGTGTTTTA,768
17,GAGTGGCTGTTGTCTCGGGCGGATGGGGAGAGGGGA,598
18,GGCACTGGCTTTCCGGGGCCTCTCTGGGCTGGACAG,659
19,CGGCCTCTTCCGGTCACCTGGCCCGTCGCTGTCCCG,17300
20,CAGCCTGTAAAGCTCAGAACATCCCTGGAGCCCTTT,611
21,TCCACAGCCGGTTCCGGCCGGTTCCCAGAAGCCCCT,2340
22,AGGGTGTTCTAAGCACGAGCTCAGGATGCTGTCTGT,362
23,CCTGGCGTTCCTACGGGCCGCGGATGGCGGTGGATT,328
24,AGCGTCTATTTCCTCCGACTGGGGCGCGGCTGATAC,2800
25,TCTCTTCCTGAACAGGCAATTGCCTGGGGTCCAACA,3020

row,Sequence,ETS1 binding intensity
1,CTCCTTCCTGATCGGGCAGGAACTAATCACAGGAGG,2100
2,TGGCGGCGGATACTGCCCATGCCGCGAGGCCGTAAG,565
3,CAGTTCTCAGGCTTCCTCCCTTCACCAGAGCTGGCT,922
4,GCCTGAGCGGAAACCCGGCGCCACCTCAAGATGGCA,2650
5,ACTGTTGTCAGACCAAAGGAAGAACTTCCCAACCTC,489
6,TCCCCGGCAGCTTCCTCGCCCCGACCCCAGTGTTCC,560
7,CCGCCACGGCCGCCGCCATCTCCACCGGAAGAATGG,639
8,GGGAGGTCACATCCTGCCCGCGCTCTCAGAAAAGCT,10100
9,CCCCGCGGAACTCTGGCACAGTCAGCTGACAGCAGA,398
10,CTGTCTGCTTCCCGTGGCCAGCCCTGATCGCGGCCC,953
11,CTGCTAGCGGAAGCAGCCAAGCCTACAGGCTCCAGG,1940
12,CGGCACCACTTCCGAGTGGAGCACGCGTTGGCCGAG,3360
13,ACTATTTTTAGACTTCCCCACCCCGCTGTTTCAAGG,632
14,TGAGATTAGTGGATAAGTTGGTGCCGGATGTCATCC,716
15,GGCACACTGCAGTCGCACCATAAGCTTCCTGGATGG,448
16,CTCGTGGCAACATCTGGCGGTGCCCCGGCATCCGGT,1630
17,TAGCACCCAAAAGCACCTACTGGCTTCCGGCACCTC,1380
18,TGGGGAGGCAGGAAACGGGCCTTGTAGTTGGGGGGT,3950
19,CTTGGCTGGGGTTCTCTGGTAGGAAGTGAGAGAGGT,466
20,CAGTGGCTTCCTCCCCACCTCCTACCCCATTCAATG,2000
21,GTGGAAGTCACAGGGAGTGGGCAGGATGTAGCAGAA,1150
22,GTAGTAAGTTGTAGTTAAAAGAGAGGAAGTTCAGAG,550
23,AGTGGGTGCTTTTCAGCCCTTATCTTCCTGGACCAT,353
24,CCGAGTGGCAGTTGTTTCAAGATGGCGGACGTGGCA,389 ± 29
25,TTGGATGTGACTTGCCAAAAAAAAGCATATCCTTGG,357

row,Sequence,ETS1 binding intensity
1,AGGTTAAGTGAGGTTTCTCTTCCTGTTTCCACCCTG,1580
2,ATGTCAGGAAGAGGCTCAGGGCTGTAGTTTCTCTGT,519
3,TTCTTCACTTCCTTCTCTCCGTGCTTTCGCCATTAG,2950
4,GGGTTTTCCGCGCGCCAGCTGAGGTGCTTGCTGGGA,631
5,GGTGTTGTCAAAACAAACCTCCCACATCCCGTACGT,506
6,CAGCTGCAGGCCTGGGTGTACGGAGCCCGGAACAGG,567
7,TTGGCTTGGGGCTGGACTACATTTCCCAGCATCCCT,425
8,AACTGAACCTCCACCACTTAACCTCTAAGGAAGCGG,405
9,GAGCCTGTTGCTTCCGGTTCAGAGCCCACGTGCTGG,22200
10,CGGGCCCCAAAATGGTGGAGGGGCAGCTTCCGGCAG,1280
11,CCAAGCACTTCCTGCTGTTAGCTTTTTGGGCTGAGT,10100
12,GATTGCCGTTGGGACTTTCCCTAAGTCATTTCCTGT,2220
13,CTAGCCTGTGATTTTTCTGAGAATGCAGGATATGTC,412
14,GGACACAGGCTTCCGCGTTACCGACACGGCGTGGGG,1300
15,ATCAGAGCGGAAATCTCAGTCTTGTGAGGGGACCTG,2170
16,AGTACAAAGGGGAAATGTCTCTTGGTAGTTGATAAG,414
17,GTCACCATTTCCGGGCCTCCACGGTGTCCCCACCCC,13600
18,GACGGGATGTAGGTTTTCAGCCGTGGACACAGGAGA,936
19,CCTGTCTGCTTCCGCCCGGCTTCGGCCCTCAGTCAA,7020
20,GCACCACCGGAAGTAGGGCTCAACCTCCGCTCATTT,24400
21,AAGACAGTCGAGGTGGGCGGGGACAGGAAGTAAGAC,2340
22,AGGAAACCCCAAGTTATTCCCTGCAAAGGTCTTGAT,429
23,CCGAGGTTGCAAGAAACACCCACCATTTCCGGGTCT,2110
24,CTAGCTGTGGACAGGAAACGAGTGGATTTTGTGATC,3740
25,TCACCTTCTGCCAAAACTGTTAAGTTTCCTGAGGCC,428

row,Sequence,ETS1 binding intensity
1,GTCCCCCTTCCGGCTGCAGGTTGGGGTTTGGAACCT,8100
2,GCCCCCAACTCCCAGACACAGCCCCTTCCTCCTCCC,410
3,AGCACCCCCTTGAGGTGTCTGGAGGAAGCGGCGCGG,370
4,TGCTTAGAACACGGAAACACTGAGCTTTTACTTTGA,490
5,ACGGAGCTGTAGTTTAACGTTTCCGGTTAGTGGCTA,9670
6,ACTGCCATCCGCCTCAAACGCCAGCCGTAGGCTCTC,942
7,TTTTTGGGGTTTAGCCCTCAGAGCTTCCTGCCAGAG,702
8,CGGGTTAAACAGCAGCCGCGCCCACACTTCCGGGGT,2120
9,AGTGCTGTAATGAGTCATTGTTTATAGGAAGCACCC,384
10,GTGCAGGGCCCGGAAGCTCAGTGTGATTAAAGACAT,1800
11,CTGTGCTGTCATGTGACGGAGGCCGGAAGGCAGGTC,548
12,GTGGGACCTGCTTCCTTAGCCCAAAAGATGCAGAGC,821
13,AAACCAACCCCAGGGAGATATAATATCTCTTCCTGT,522
14,ATGAGCTATTTCCTGCCTTGTTGTCAGAGCCAGACT,23500
15,CCCATCCTGAGAAGGGACTGAGGCGGCGGCGCAGAA,1070
16,CACGTCGCGAGCGCACAGGGGGAAGTTCTCCCGCCA,399
17,CCGGGCTGCGGAAGGCGGGAACTCTGCTGTTCGCGG,404 ± 58
18,GGGAGCGGCGCGGCGAGAGAGAGGCGGATGAAGGGG,456
19,GCCCGGAAGCGCGACGCTGGAGCGGCGGGGTCACCA,3080
20,GCGCACCCGCTTCGGCCTCCACAGGAAGTGCCCGGC,1210
21,CCGGTTCCCAGAGAGCAGGGGGCTTCCGGCGGGGTA,2590
22,TCCAACACAACCCCAGCCCCCGTGCCGGAAGCTGTT,494
23,GTTTTCAGGTTGGGGTGCGTGTAGGATGTGCTCTGG,487
24,GCGCCCGCCGCCAGGAAGGACCCCGAAGACGCCGCT,479
25,CCAGCGGAAAGCCGGTCAGGGGGAACAGCGGCGGGG,513
